In article PMC12820563 one finds binding signal (RPM ratio (pull-down/input)) data, which are given here for 63 sequences.

The other results are listed elsewhere or left out. The list includes weakly bound sequences.

The target in this experiment is T1, MBP-FoxP3dN (UniProt Q99JB6).
T1 sequence: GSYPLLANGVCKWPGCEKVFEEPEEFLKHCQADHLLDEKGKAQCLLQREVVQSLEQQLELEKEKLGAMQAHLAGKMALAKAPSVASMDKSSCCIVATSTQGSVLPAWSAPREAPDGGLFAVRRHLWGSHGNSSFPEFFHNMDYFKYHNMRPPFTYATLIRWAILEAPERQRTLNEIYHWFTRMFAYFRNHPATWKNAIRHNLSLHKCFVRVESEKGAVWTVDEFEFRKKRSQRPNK
The experiment can be described thus: PD-seq (MBP pull-down with sequencing). Particulars: 20 mM Tris-HCl pH 7.5, 100 mM NaCl, 1.5 mM MgCl2, 0.4 uM protein, 0.1 uM dsDNA library, 30 min, room temperature, amylose pull-down; high values mean tight binding; double strand, one strand shown.
For “GATGATTGTTCTCCCAGCTGATGAATTCTACTGTTCGAGTAAACAAATTTTCCTAATCTTTCTGTTCAAGCGCCATCTAC”, the binding signal (RPM ratio (pull-down/input)) came out at 0.567.
Turning to “GATGATTGTTCTCCCAGCTGATGAATTCAATTAGTCGAGTAAACAAATTTTCCTAATCTTTCTGTTCAAGCGCCATCTAC”, the binding signal (RPM ratio (pull-down/input)) was 1.25.
Under “GATGATTGTTCTCCCAGCTGATGAATTGTCACAGTCGAGTAAACAAATTTTCCTAATCTTTCTGTTCAAGCGCCATCTAC” stands 0.37; under “GATGATTGTTCTCCCAGCTGATGAATTTATTTCATCGAGTAAACAAATTTTCCTAATCTTTCTGTTCAAGCGCCATCTAC”, 1.45; under “GATGATTGTTCTCCCAGCTGATGAATTGGTCTTTTCGAGTAAACAAATTTTCCTAATCTTTCTGTTCAAGCGCCATCTAC”, 0.439.
For “GATGATTGTTCTCCCAGCTGATGAATTCGCTTATTCGAGTAAACAAATTTTCCTAATCTTTCTGTTCAAGCGCCATCTAC”, the binding signal (RPM ratio (pull-down/input)) was 2.49.
Under “GATGATTGTTCTCCCAGCTGATGAATTCGTTTATTCGAGTAAACAAATTTTCCTAATCTTTCTGTTCAAGCGCCATCTAC” stands 4.83.
The same measure for “GATGATTGTTCTCCCAGCTGATGAATTTAGGCTCTCGAGTAAACAAATTTTCCTAATCTTTCTGTTCAAGCGCCATCTAC”: 0.686; for “GATGATTGTTCTCCCAGCTGATGAATTAGTTTGATCGAGTAAACAAATTTTCCTAATCTTTCTGTTCAAGCGCCATCTAC”: 2.
Under “GATGATTGTTCTCCCAGCTGATGAATTGCAATTGTCGAGTAAACAAATTTTCCTAATCTTTCTGTTCAAGCGCCATCTAC” stands 2.73; under “GATGATTGTTCTCCCAGCTGATGAATTTGTTCAGTCGAGTAAACAAATTTTCCTAATCTTTCTGTTCAAGCGCCATCTAC”, 1.74; under “GATGATTGTTCTCCCAGCTGATGAATTAGAGCATTCGAGTAAACAAATTTTCCTAATCTTTCTGTTCAAGCGCCATCTAC”, 5.15.
As to “GATGATTGTTCTCCCAGCTGATGAATTCACGATATCGAGTAAACAAATTTTCCTAATCTTTCTGTTCAAGCGCCATCTAC”, the binding signal (RPM ratio (pull-down/input)) is 0.437.
Under “GATGATTGTTCTCCCAGCTGATGAATTGGCGCCATCGAGTAAACAAATTTTCCTAATCTTTCTGTTCAAGCGCCATCTAC” stands 2.41; under “GATGATTGTTCTCCCAGCTGATGAATTCGACGATTCGAGTAAACAAATTTTCCTAATCTTTCTGTTCAAGCGCCATCTAC”, 0.311.
Under “GATGATTGTTCTCCCAGCTGATGAATTAGTGTTTTCGAGTAAACAAATTTTCCTAATCTTTCTGTTCAAGCGCCATCTAC” stands 2.82.
Under “GATGATTGTTCTCCCAGCTGATGAATTTACTACATCGAGTAAACAAATTTTCCTAATCTTTCTGTTCAAGCGCCATCTAC” stands 0.69; under “GATGATTGTTCTCCCAGCTGATGAATTAATAAAGTCGAGTAAACAAATTTTCCTAATCTTTCTGTTCAAGCGCCATCTAC”, 0.23; under “GATGATTGTTCTCCCAGCTGATGAATTCCACCGATCGAGTAAACAAATTTTCCTAATCTTTCTGTTCAAGCGCCATCTAC”, 0.315.
For “GATGATTGTTCTCCCAGCTGATGAATTTTTTTCCTCGAGTAAACAAATTTTCCTAATCTTTCTGTTCAAGCGCCATCTAC”, the binding signal (RPM ratio (pull-down/input)) was 0.246.
The same measure for “GATGATTGTTCTCCCAGCTGATGAATTTGACGGGTCGAGTAAACAAATTTTCCTAATCTTTCTGTTCAAGCGCCATCTAC”: 0.471.
Regarding “GATGATTGTTCTCCCAGCTGATGAATTATCACAATCGAGTAAACAAATTTTCCTAATCTTTCTGTTCAAGCGCCATCTAC”, the binding signal (RPM ratio (pull-down/input)) worked out at 0.504.
Under “GATGATTGTTCTCCCAGCTGATGAATTGAGGTCCTCGAGTAAACAAATTTTCCTAATCTTTCTGTTCAAGCGCCATCTAC” stands 0.404; under “GATGATTGTTCTCCCAGCTGATGAATTTTGGGCCTCGAGTAAACAAATTTTCCTAATCTTTCTGTTCAAGCGCCATCTAC”, 0.471; under “GATGATTGTTCTCCCAGCTGATGAATTGCCTTTCTCGAGTAAACAAATTTTCCTAATCTTTCTGTTCAAGCGCCATCTAC”, 0.937.
The same measure for “GATGATTGTTCTCCCAGCTGATGAATTGCTTTAGTCGAGTAAACAAATTTTCCTAATCTTTCTGTTCAAGCGCCATCTAC”: 0.719; for “GATGATTGTTCTCCCAGCTGATGAATTTTGTAGGTCGAGTAAACAAATTTTCCTAATCTTTCTGTTCAAGCGCCATCTAC”: 1.8; for “GATGATTGTTCTCCCAGCTGATGAATTGTTCAGGTCGAGTAAACAAATTTTCCTAATCTTTCTGTTCAAGCGCCATCTAC”: 0.281.
Under “GATGATTGTTCTCCCAGCTGATGAATTCTCCAATTCGAGTAAACAAATTTTCCTAATCTTTCTGTTCAAGCGCCATCTAC” stands 0.242.
Turning to “GATGATTGTTCTCCCAGCTGATGAATTTTCAATCTCGAGTAAACAAATTTTCCTAATCTTTCTGTTCAAGCGCCATCTAC”, the binding signal (RPM ratio (pull-down/input)) worked out at 0.254.
Under “GATGATTGTTCTCCCAGCTGATGAATTTCTACCTTCGAGTAAACAAATTTTCCTAATCTTTCTGTTCAAGCGCCATCTAC” stands 0.232; under “GATGATTGTTCTCCCAGCTGATGAATTGAGCTCCTCGAGTAAACAAATTTTCCTAATCTTTCTGTTCAAGCGCCATCTAC”, 0.637; under “GATGATTGTTCTCCCAGCTGATGAATTAAGAGCCTCGAGTAAACAAATTTTCCTAATCTTTCTGTTCAAGCGCCATCTAC”, 0.471.
Under “GATGATTGTTCTCCCAGCTGATGAATTCACTACATCGAGTAAACAAATTTTCCTAATCTTTCTGTTCAAGCGCCATCTAC” stands 0.507; under “GATGATTGTTCTCCCAGCTGATGAATTCATCTGATCGAGTAAACAAATTTTCCTAATCTTTCTGTTCAAGCGCCATCTAC”, 0.248; under “GATGATTGTTCTCCCAGCTGATGAATTCCACCGGTCGAGTAAACAAATTTTCCTAATCTTTCTGTTCAAGCGCCATCTAC”, 0.2.
Under “GATGATTGTTCTCCCAGCTGATGAATTATTCTACTCGAGTAAACAAATTTTCCTAATCTTTCTGTTCAAGCGCCATCTAC” stands 0.361.
Take “GATGATTGTTCTCCCAGCTGATGAATTCTCAGTATCGAGTAAACAAATTTTCCTAATCTTTCTGTTCAAGCGCCATCTAC”: the binding signal (RPM ratio (pull-down/input)) is 0.375.
Under “GATGATTGTTCTCCCAGCTGATGAATTCATATAATCGAGTAAACAAATTTTCCTAATCTTTCTGTTCAAGCGCCATCTAC” stands 0.409.
As for “GATGATTGTTCTCCCAGCTGATGAATTCGATGGCTCGAGTAAACAAATTTTCCTAATCTTTCTGTTCAAGCGCCATCTAC”, the binding signal (RPM ratio (pull-down/input)) came out at 0.944.
The same measure for “GATGATTGTTCTCCCAGCTGATGAATTTAAGAGGTCGAGTAAACAAATTTTCCTAATCTTTCTGTTCAAGCGCCATCTAC”: 0.231; for “GATGATTGTTCTCCCAGCTGATGAATTCATTCAATCGAGTAAACAAATTTTCCTAATCTTTCTGTTCAAGCGCCATCTAC”: 0.229.
The same measure for “GATGATTGTTCTCCCAGCTGATGAATTTTCGTTCTCGAGTAAACAAATTTTCCTAATCTTTCTGTTCAAGCGCCATCTAC”: 0.417; for “GATGATTGTTCTCCCAGCTGATGAATTAGTGCGGTCGAGTAAACAAATTTTCCTAATCTTTCTGTTCAAGCGCCATCTAC”: 0.534; for “GATGATTGTTCTCCCAGCTGATGAATTGTGAATCTCGAGTAAACAAATTTTCCTAATCTTTCTGTTCAAGCGCCATCTAC”: 2.72.
Under “GATGATTGTTCTCCCAGCTGATGAATTCGCTGTCTCGAGTAAACAAATTTTCCTAATCTTTCTGTTCAAGCGCCATCTAC” stands 1.63; under “GATGATTGTTCTCCCAGCTGATGAATTACTCAGCTCGAGTAAACAAATTTTCCTAATCTTTCTGTTCAAGCGCCATCTAC”, 0.252; under “GATGATTGTTCTCCCAGCTGATGAATTATTAGAATCGAGTAAACAAATTTTCCTAATCTTTCTGTTCAAGCGCCATCTAC”, 0.298.
Consider “GATGATTGTTCTCCCAGCTGATGAATTAACAGAATCGAGTAAACAAATTTTCCTAATCTTTCTGTTCAAGCGCCATCTAC”, for which the binding signal (RPM ratio (pull-down/input)) came out at 0.243.
As to “GATGATTGTTCTCCCAGCTGATGAATTCGTCTTCTCGAGTAAACAAATTTTCCTAATCTTTCTGTTCAAGCGCCATCTAC”, the binding signal (RPM ratio (pull-down/input)) was found to be 0.573.
The same measure for “GATGATTGTTCTCCCAGCTGATGAATTTGAGGGATCGAGTAAACAAATTTTCCTAATCTTTCTGTTCAAGCGCCATCTAC”: 0.363.
The same measure for “GATGATTGTTCTCCCAGCTGATGAATTCTACGCCTCGAGTAAACAAATTTTCCTAATCTTTCTGTTCAAGCGCCATCTAC”: 0.474; for “GATGATTGTTCTCCCAGCTGATGAATTTACCTCTTCGAGTAAACAAATTTTCCTAATCTTTCTGTTCAAGCGCCATCTAC”: 0.488; for “GATGATTGTTCTCCCAGCTGATGAATTCTCCTAATCGAGTAAACAAATTTTCCTAATCTTTCTGTTCAAGCGCCATCTAC”: 0.206.
Under “GATGATTGTTCTCCCAGCTGATGAATTACATTAATCGAGTAAACAAATTTTCCTAATCTTTCTGTTCAAGCGCCATCTAC” stands 0.425.
Turning to “GATGATTGTTCTCCCAGCTGATGAATTTTCGTATTCGAGTAAACAAATTTTCCTAATCTTTCTGTTCAAGCGCCATCTAC”, the binding signal (RPM ratio (pull-down/input)) stood at 1.22.
On to “GATGATTGTTCTCCCAGCTGATGAATTCCCTTACTCGAGTAAACAAATTTTCCTAATCTTTCTGTTCAAGCGCCATCTAC”, for which the binding signal (RPM ratio (pull-down/input)) stood at 0.294.
The same measure for “GATGATTGTTCTCCCAGCTGATGAATTATCTTGTTCGAGTAAACAAATTTTCCTAATCTTTCTGTTCAAGCGCCATCTAC”: 0.54.
Under “GATGATTGTTCTCCCAGCTGATGAATTCCCATTTTCGAGTAAACAAATTTTCCTAATCTTTCTGTTCAAGCGCCATCTAC” stands 0.336; under “GATGATTGTTCTCCCAGCTGATGAATTTCAAATTTCGAGTAAACAAATTTTCCTAATCTTTCTGTTCAAGCGCCATCTAC”, 0.227; under “GATGATTGTTCTCCCAGCTGATGAATTCGCCTATTCGAGTAAACAAATTTTCCTAATCTTTCTGTTCAAGCGCCATCTAC”, 0.603.
The same measure for “GATGATTGTTCTCCCAGCTGATGAATTCTTCGAGTCGAGTAAACAAATTTTCCTAATCTTTCTGTTCAAGCGCCATCTAC”: 0.232; for “GATGATTGTTCTCCCAGCTGATGAATTTCGAAGGTCGAGTAAACAAATTTTCCTAATCTTTCTGTTCAAGCGCCATCTAC”: 0.237.
